Experimental findings from PubChem BioAssay AID1346428 (National Center for Advancing Translational Sciences (NCATS), 2018) are described below.

Values joined by “and” are separate entries in the source; they are usually repeats but may differ in a detail not shown here. Equal entries are not always repeated. Screen size: about 48,000 compounds; about 1,200 (2.5%) were called active. Roughly 2% stayed inconclusive and do not appear here.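 How the source made its calls: active means activation of at least 60% and not above a set upper limit (about 1 call in 100 departs from these limits); inconclusive means activation of 40% to 60%, or above that upper limit; inactive means activation under 40%.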 This is one part of the list.

Chain of UniProt O75388 (O75388 whole entry, looked up): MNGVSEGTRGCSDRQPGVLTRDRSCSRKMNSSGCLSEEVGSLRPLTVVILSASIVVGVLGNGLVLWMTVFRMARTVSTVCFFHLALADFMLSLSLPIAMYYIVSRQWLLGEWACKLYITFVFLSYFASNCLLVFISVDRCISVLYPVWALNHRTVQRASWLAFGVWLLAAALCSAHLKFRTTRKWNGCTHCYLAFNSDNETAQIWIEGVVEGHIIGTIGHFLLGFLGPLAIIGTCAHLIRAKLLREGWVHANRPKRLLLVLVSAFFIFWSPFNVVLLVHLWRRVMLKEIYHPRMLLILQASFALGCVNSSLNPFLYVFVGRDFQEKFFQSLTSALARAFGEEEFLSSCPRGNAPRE

In this assay the target is Probable G-protein coupled receptor 32 (Homo sapiens) (UniProt O75388). In words: qHTS for Agonists of Human Resolvin D1 Receptor DRV1. Further: 0% is about no effect. Particulars: CHO-K1 GPR32 beta-arrestin PathHunter luminescence, 90 min; at 76.9 µM; stronger effect = higher value; zero percent set by DMSO-only wells. The method, boiled down:
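Engineered CHO-K1 line co-expressing GPR32-ProLink and EA-beta-arrestin. Compound treatment lasted 90 min at 37 °C. Luminescence was recorded after 1 h with substrate at ambient temperature, relative to DMSO basal wells.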
With `O=C(Nc1ccccc1)c1cccc2c(=O)c3c([nH]c12)CCCC3`, the activation is inactive: 7.78%.

For the compound `Cc1noc(Cn2c(=O)c3cc4c(cc3n(CC(=O)Nc3cccc(Cl)c3)c2=O)OCO4)n1`, the activation was inactive: 3.78%.

Consider `O=C(Nc1ccc(SC(F)F)cc1)c1cc(-c2ccc3c(c2)OCCO3)on1`, for which the activation is inactive: -6.19%.

Turning to `COc1ccc(NC(=O)[C@@H](c2ccccc2)N2Cc3ccccc3C2=O)cc1OC`, the activation was inactive: -3.24%.

Take `CC(=O)Nc1nonc1-c1nnc(SCC(=O)Nc2ccc(C)cc2C)n1C`: the activation was inactive: -18.9%.

Turning to `CCOc1ccc(CNC(=O)c2c(C)nn(-c3ccc(F)cc3)c2-n2cccc2)cc1`, the activation was inactive: -18.3%.

Consider `CC1CCc2c(sc(NC(=O)COc3ccccc3)c2C(=O)Nc2ccccc2Cl)C1` (stereo unspecified), for which the activation is inactive: 5.36%.

For `CN(C)CCOC(C)(c1ccccc1)c1ccccn1` (stereo unspecified), the activation was inactive: 18.9% and inactive: 5.61%.

For `Cc1ccc(-n2nc(C(=O)NCCN(C)C)c(=O)n(C)c2=O)cc1`, the activation was inactive: -1.78%.

As to `Cc1ccc(CSCC(=O)N2CCN(c3cc(Cl)ccc3C)CC2)cc1`, the activation is inactive: -24.3%.

Consider `C=CCNC(N)=S`, for which the activation was inactive: -0.854%.

Regarding `Cc1ccc2oc(C(=O)N(Cc3ccccc3F)C3CCS(=O)(=O)C3)c(C)c2c1` (stereo unspecified), the activation was inactive: -25.5%.

In the case of `Cc1[nH]c2ccccc2c1C(=O)C(=O)NC1CC(=O)N(c2cccc(F)c2)C1` (stereo unspecified), the activation was inactive: -1.99%.

Turning to `COc1cccc(-c2cc(=O)c3ccccc3o2)c1N`, the activation was inactive: -11.3%.

For the compound `COc1cccc(NC(=O)CC2C(=O)OCCN2Cc2ccccc2)c1` (stereo unspecified), the activation is inactive: 4.8%.

For the compound `COc1ccc(C2C(C(N)=O)=C(C)Nc3nc(-c4ccccc4Cl)nn32)cc1` (stereo unspecified), the activation was inactive: -20%.

With `CC(=O)c1ccc2c(c1)N(CCCN(C)C)c1ccccc1S2`, the activation is inactive: 16.5%.

For `Cc1ccc(-c2nn(CC(=O)NC3CCCCC3)c3c2cnc2ccc(F)cc23)cc1C`, the activation was inactive: -8%.

For `CCOc1cccc2cc(-c3nnc(Nc4ccc(F)c(Cl)c4)s3)c(=O)oc12`, the activation is inactive: 7.36%.

As for `CCCCOc1ccc(-c2cc3c(=O)n(CC(=O)Nc4ccc(Cl)cc4Cl)ccn3n2)cc1`, the activation is inactive: 6.52%.

Consider `O=C(CSc1nc2c(cnn2-c2ccc(F)cc2)c(=O)[nH]1)Nc1ccc(Br)cc1`, for which the activation was inactive: 39.9%.

Turning to `Cn1c(=O)[nH]c(=O)c2c1nc1n(CCO)c(-c3ccccc3)cn21`, the activation was inactive: 5.55%.

`COc1ccccc1CNC(=O)c1ccc2c(c1)sc1nc(-c3ccc(F)cc3)cn12`: the activation was inactive: -14.9%.

Regarding `CC(C)C(=O)OC1=CN(Cc2ccccc2)S(=O)(=O)c2ccccc21`, the activation was inactive: -6.51%.

Consider `COc1cccc(CNC(=O)c2cc(=O)[nH]c3ccc(S(=O)(=O)N4CCCCC4)cc23)c1`, for which the activation was inactive: -3.54%.

For the compound `Cc1ccc(Cl)cc1NC(=O)CN(C)S(=O)(=O)c1ccc2c(c1)n(C)c(=O)c(=O)n2C`, the activation was inactive: -17.1%.

Consider `Cc1cccc(C)c1Nc1c(-c2ccc(Cl)s2)nc2ncccn12`, for which the activation is inactive: -15.4%.

In the case of `COCCNC(=O)CCc1nc2cccnc2n1Cc1ccc(OC)cc1`, the activation was inactive: -7.43%.

Take `CCc1ccc(OC(C)C(=O)Nc2c(C(=O)c3ccccc3)oc3ccccc23)cc1` (stereo unspecified): the activation was inactive: -29.4%.

For `COc1ccc(Cl)cc1NC(=O)c1cc2c(s1)-c1ccccc1OC2`, the activation was inactive: -5.8%.

For `CS(=O)(=O)N(CC(=O)NCCSc1ccccc1)c1cc(C(F)(F)F)ccc1Cl`, the activation was inactive: 20%.

`Oc1c(Br)cc(Br)cc1-c1nc2ccccc2s1`: the activation was inactive: -4.23%.

Regarding `COc1ccc(OC)c(NC(=O)CSc2cn(CC(=O)N3CCOCC3)c3ccccc23)c1`, the activation was inactive: -22%.

As for `COc1cccc(C2C(C(=O)Nc3ccccc3)=C(C)Nc3nc(-c4ccccc4)nn32)c1` (stereo unspecified), the activation is inactive: -11%.

As to `Cc1ccc(-c2nc(CS(=O)CC(=O)N3CCN(c4ccccc4)CC3)c(C)o2)cc1` (stereo unspecified), the activation was inactive: -6.83%.

Consider `O=C(c1ccccc1)c1ccccc1NC(=O)c1ccccc1C(=O)O`, for which the activation was inactive: -6.94%.

For the compound `CCCN(CCC)C(=O)C1CCCN(S(=O)(=O)c2ccc3c(c2)oc(=O)n3C)C1` (stereo unspecified), the activation is inactive: -30.3%.

Turning to `COc1ccc(-c2noc(-c3ccc(NC4CCCC4)c([N+](=O)[O-])c3)n2)cc1`, the activation is inactive: -20.4%.

`CC(=O)c1ccc(N2CCN(C(=O)c3cc4cc5cc(C)ccc5nc4s3)CC2)cc1`: the activation was inactive: -7.81%.

Take `CCN(CC)c1cc(C)c2cc(NC(=O)/C=C/c3ccc(C)cc3)ccc2n1`: the activation is inactive: 12.2%.

Take `C[N+](C)(C)CCO`: the activation is inactive: -4.9%.

On to `CCCCCCCCCCCCCCC[C@H](O)[C@H](N)CO`, for which the activation is inactive: 6.16%.

As for `Cc1ccc(C(=O)c2oc3ccccc3c2NC(=O)c2cc(-c3ccccc3)on2)cc1F`, the activation is inactive: -5.06%.

`Cc1ccc(C)c(NC(=O)C2CCCN(S(=O)(=O)c3ccc4[nH]c(=O)ccc4c3)C2)c1` (stereo unspecified): the activation was inactive: -12.7%.

With `CC(C)Oc1ccc(CNS(=O)(=O)c2cnc(N)nc2)cc1`, the activation was inactive: -3.74%.

On to `CC(C)Cn1cnc2c1c(=O)n(C)c(=O)n2C`, for which the activation was inactive: -8.78%.

As for `CCOc1cc(CNCCSc2nnnn2-c2ccccc2)cc(Cl)c1OC`, the activation was inactive: 13.3%.

As for `CCOc1ccc(CCNC(=O)Cn2nnc(-c3ccc(OC)c(OC)c3)n2)cc1OCC`, the activation is inactive: -8.99%.

For `CN1CCN(C(CNC(=O)C(=O)Nc2ccc(F)cc2F)c2ccc3c(c2)OCO3)CC1` (stereo unspecified), the activation is inactive: 9.38%.

As to `CC(C)(C#N)c1cc(Cn2cncn2)cc(C(C)(C)C#N)c1`, the activation is inactive: -16%.

Turning to `Cc1ccc2nc(-c3ccc(NC(=O)COc4c(C)ccc(C)c4C)cc3)sc2c1`, the activation is inactive: 19.2%.

For the compound `COc1cc(NC(=O)c2nnn(CC(=O)Nc3ccccc3)c2N)cc(OC)c1`, the activation is inactive: 17.7%.

For the compound `CSc1nc(-c2ccc(F)cc2)nc2c1Cc1c(CO)cnc(C)c1O2`, the activation is inactive: 11.8%.

On to `CCCc1nn2c(=O)cc(COC(=O)c3ccc(NC(=O)C(C)Oc4ccccc4)cc3)nc2s1` (stereo unspecified), for which the activation was inactive: -14.3%.

Take `CCCCNc1nc(Oc2ccc(=O)n(C)n2)nc(N(C)C)n1`: the activation was inactive: -5.4%.

As to `O=C(NC1CCCCC1)c1ccc2c(c1)N(Cc1ccccc1)C(=O)c1ccccc1S2`, the activation was inactive: -6.24%.

As to `O=C(CN1C(=O)C2(SCC(=O)N2c2ccccc2)c2ccccc21)NCc1ccccc1Cl` (stereo unspecified), the activation was inactive: -4.91%.

On to `COc1ccc(C(=O)c2cn(Cc3ccc(C)cc3)c3cc4c(cc3c2=O)OCO4)cc1`, for which the activation was inactive: 7.38%.

Turning to `COc1cc(NC(=O)CCS(=O)(=O)c2nc(-c3cccs3)cc(C(F)(F)F)n2)cc(OC)c1OC`, the activation is inactive: -32.9%.

`COc1ccccc1-c1noc(CSc2nc3ccc(C)cc3[nH]2)n1`: the activation is inactive: 34.3%.

In the case of `O=C(CSc1cn(CC(=O)N2CCCCC2)c2ccccc12)Nc1ccccc1F`, the activation was inactive: 5.25%.

Turning to `Cc1ccc2c(CC(=O)Nc3ccccc3C(F)(F)F)coc2c1C`, the activation is inactive: -0.704%.

As to `CC(CNC(=O)C1CCN(Cc2cc3ccccc3n2Cc2ccccc2)CC1)c1ccccc1` (stereo unspecified), the activation was inactive: -24.4%.

On to `Cc1c(Cl)cccc1NC(=O)CCn1c(=O)c2cccn2c2ccccc21`, for which the activation is inactive: -12.6%.

As to `CCOc1ccccc1NC(=O)CSc1nccn1-c1ccc(Cl)cc1`, the activation was inactive: -6.74%.

`COc1ccc(CCNC(=O)c2cc(-c3ccccc3)nc3ccccc23)cc1OC`: the activation is inactive: 17.3%.

As to `COC(=O)c1scc(-c2ccc(C)cc2)c1S(=O)(=O)Nc1cccc(C(F)(F)F)c1`, the activation is inactive: 0.278%.

As for `CCn1cc(C(=O)OCC(=O)Nc2cc(C)cc(C)c2)c(=O)c2ccc(C)nc21`, the activation is inactive: 20.2%.

Regarding `Cc1nn(CCCC(=O)NCc2ccccc2)c(=O)c2nn(-c3ccccc3)c(C)c12`, the activation was inactive: -4.31%.

On to `C[C@@H](O)[C@H]1C(=O)N2C(C(=O)O)=C(S[C@@H]3CN[C@H](CNS(N)(=O)=O)C3)[C@H](C)[C@H]12`, for which the activation is inactive: 11.6%.

With `O=C(CSc1nc2ccccc2c(=O)n1CCC(=O)NC1CCCCC1)Nc1ccccc1Cl`, the activation was inactive: -8.54%.

For the compound `COC(=O)c1sc2cccc(F)c2c1S(=O)(=O)Nc1cc(OC)cc(OC)c1`, the activation was inactive: -3.11%.

`CCOc1ccc(CC(=O)Nc2nnc3n2CCS3)cc1`: the activation was inactive: -1.26%.

`O=C(CSc1cn(CC(=O)N2CCCCCC2)c2ccccc12)Nc1ccccc1F`: the activation is inactive: 8.23%.

Regarding `CCc1nnc2c(NCc3ccccc3OC)nc3ccccc3n12`, the activation was inactive: -8.72%.

On to `CC(C)c1nnc(N2C(=O)c3oc4ccccc4c(=O)c3C2c2cccc(O)c2)s1` (stereo unspecified), for which the activation was inactive: -8.19%.

As for `CCC(=O)N1CCc2cc(S(=O)(=O)NCCC(=O)Nc3ccc(OC)c(Cl)c3)ccc21`, the activation is inactive: 22.3%.

Take `CCN(C(=O)C1CCN(S(=O)(=O)c2ccc3c(c2)CCCN3C(=O)C2CCC2)CC1)c1cccc(C)c1`: the activation was inactive: 3.31%.

Turning to `Cc1c(Cl)cccc1NC(=O)c1cnc2sc(N3CCCC3)nn2c1=O`, the activation was inactive: -0.859%.

As to `Cc1ccc(NC(=O)Cn2c(=O)n(CCCCCC(=O)NCc3ccc(F)cc3)c(=O)c3sccc32)c(C)c1`, the activation was inactive: 5.47%.

As to `COCCN1Cc2cccc(C(=O)Nc3ccc(C)cc3C)c2C1=O`, the activation is inactive: 22.8%.

For the compound `COC(=O)CNC(=O)C(Cc1ccccc1)NS(=O)(=O)c1ccc2c(c1)c(=O)n(C)c(=O)n2C` (stereo unspecified), the activation was inactive: -4.46%.

As to `O=C(COc1ccccc1)Nc1ccc(S(=O)(=O)N(Cc2ccccc2)c2ccccc2)cc1`, the activation was inactive: 7.15%.

Consider `Cc1c(C(=O)NCc2ccc(N(C)C)cc2)oc2c1-c1nn(Cc3cccc(Cl)c3)cc1CC2`, for which the activation is inactive: -30.3%.

For `Cc1cc2c(cc1S(=O)(=O)N1CCC(C)CC1)OCC(=O)N2`, the activation was inactive: -8.36%.

Turning to `COc1ccc(-c2nc(-c3ccccc3)c(-c3ccccc3)[nH]2)cc1Br`, the activation is inactive: 7.23%.
